Data on three compounds can be found in article PMC3931744, “Discovery of Selective Inhibitors of the Clostridium difficile Dehydroquinate Dehydratase” (PLoS ONE, 2014).

The target in assay [1] is cdDHQD (type I dehydroquinate dehydratase) (Clostridioides difficile, UniProt Q186A6). As to the kind of experiment: biochemical.
The next assay has as its target seDHQD (type I DHQD) (Salmonella typhimurium, UniProt P58687). As to the kind of experiment: biochemical.

Each structure is given as a SMILES string. Where “and” joins values, the source holds several entries; their conditions need not be identical. Identical values can stand only once.

UniProt P58687, sequence (P58687 whole entry): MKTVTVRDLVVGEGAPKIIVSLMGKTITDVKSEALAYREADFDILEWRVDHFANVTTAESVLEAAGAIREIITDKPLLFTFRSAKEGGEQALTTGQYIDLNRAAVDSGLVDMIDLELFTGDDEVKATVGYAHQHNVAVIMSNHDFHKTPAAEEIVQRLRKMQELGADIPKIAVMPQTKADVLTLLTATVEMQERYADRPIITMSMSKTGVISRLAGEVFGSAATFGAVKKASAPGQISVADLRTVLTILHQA
UniProt Q186A6, sequence (Q186A6 whole entry): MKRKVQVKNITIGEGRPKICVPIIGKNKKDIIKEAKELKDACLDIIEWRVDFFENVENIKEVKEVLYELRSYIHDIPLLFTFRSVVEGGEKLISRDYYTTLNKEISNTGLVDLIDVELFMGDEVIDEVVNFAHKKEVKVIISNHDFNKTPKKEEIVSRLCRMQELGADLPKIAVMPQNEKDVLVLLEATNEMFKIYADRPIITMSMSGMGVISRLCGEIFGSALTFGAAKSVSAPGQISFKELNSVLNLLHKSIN

The term IC50 denotes the concentration that inhibits the measured activity by half. Turning to `O=S(=O)(Nc1nc(-c2ccccc2)cs1)c1cc(Cl)ccc1Cl` [Compound 1], the half-inhibitory concentration (IC50) in assay [1] is ~30 µM and 34 µM; against seDHQD (type I DHQD), more than 200 µM.

For the compound `O=C(O)c1ccccc1NC(=O)c1csc2c1CCCC2` [Compound 3], the IC50 in assay [1] is ~30 µM and 31 µM; at seDHQD (type I DHQD), more than 200 µM.

For `COc1ccc2nc(NS(=O)(=O)c3cc(Cl)ccc3Cl)sc2c1` [Compound 2], the IC50 in assay [1] is ~30 µM and 35 µM; against seDHQD (type I DHQD), more than 200 µM.
